We go through 109 sequences from the supplement of paper PMC3334620.

Whole data set: some 33,000 sequences, median “E-score (-0.5 to 0.5)” near -0.012, cut for the highest 2% near 0.27. The list shows a part of the results.

This assay has as its target T1, Vhr1 (UniProt P40522).
T1 sequence: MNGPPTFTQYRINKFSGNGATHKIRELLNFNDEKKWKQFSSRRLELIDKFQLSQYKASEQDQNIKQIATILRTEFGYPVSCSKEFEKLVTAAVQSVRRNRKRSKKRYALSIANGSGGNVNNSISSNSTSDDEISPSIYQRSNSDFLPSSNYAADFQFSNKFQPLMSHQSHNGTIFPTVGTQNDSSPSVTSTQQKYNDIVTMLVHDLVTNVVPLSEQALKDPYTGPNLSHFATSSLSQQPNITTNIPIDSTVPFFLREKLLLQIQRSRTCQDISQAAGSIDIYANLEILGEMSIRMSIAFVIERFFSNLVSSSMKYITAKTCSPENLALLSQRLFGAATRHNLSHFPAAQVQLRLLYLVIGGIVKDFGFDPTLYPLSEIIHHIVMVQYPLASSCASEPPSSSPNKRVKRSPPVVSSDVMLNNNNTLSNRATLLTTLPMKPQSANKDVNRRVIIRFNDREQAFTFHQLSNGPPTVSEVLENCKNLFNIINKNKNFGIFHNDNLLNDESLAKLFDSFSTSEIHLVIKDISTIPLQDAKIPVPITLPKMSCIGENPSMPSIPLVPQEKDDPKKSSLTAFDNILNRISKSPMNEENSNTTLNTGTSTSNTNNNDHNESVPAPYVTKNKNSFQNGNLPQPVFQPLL
The assay can be described thus: PBM E-score (8-mer binding enrichment) (E-score (-0.5 to 0.5)); higher = stronger / more preferred TF binding; most listed sequences are background and not binding sites. To be noted: protein concentration: 200 nM; construct: GST-full length. A digest of the protocol:
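Universal all-10-mer Agilent arrays, fresh or stripped once, were converted to double-stranded form by primer extension. GST-tagged yeast transcription factors from PURExpress in vitro transcription/translation, full-length or DNA-binding domain only, were applied at about 100-200 nM and detected with fluorescent anti-GST. After masliner normalisation, the Universal PBM Analysis Suite scored each ungapped eight-base word together with its reverse complement by E-score.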
For the sequence CGAGATAC, the “PBM E-score” value was determined as 0.123. Next, GTGGTCAA: 0.0128; GAAATACA: -0.205; AAGAAGAG: -0.151.

As for CTCTGGGA, the “PBM E-score” value was -0.187. AGTCCACC: the “PBM E-score” value is 0.213.

For the sequence AGTGGGCA, the “PBM E-score” value came to 0.0205.

Consider ACCATGGA, for which the “PBM E-score” value was 0.0266.

As for GCGTGGAC, the “PBM E-score” value is -0.205.

Consider CGTGTCTA, for which the “PBM E-score” value worked out at 0.124. Next, GCGACGCA: -0.107; TGTACTAA: -0.0497.

Consider ACGCGAAC, for which the “PBM E-score” value was -0.0904.

Consider CGGTGCAA, for which the “PBM E-score” value is -0.126. With TGCCGCAA, the “PBM E-score” value was -0.0274. Next, CTCACCAG: 0.258.

ACCAAGTC: the “PBM E-score” value was -0.0372. For CCCCGACA the value was -0.0336.

With AATTCCGT, the “PBM E-score” value is -0.0981.

Take CAATTCAC: the “PBM E-score” value was -0.124. Next, TGAGCACA: 0.0663; ACGTACCT: -0.104. For the sequence CCTCACGC, the “PBM E-score” value was found to be 0.0696.

Take ACGCATGA: the “PBM E-score” value is 0.249. For CTCAGCTA the value was -0.159; for AGAAACTA, -0.165. Next, TATGAGAA: -0.0101; AGGAACAT: -0.0758.

For the sequence CGTTATTC, the “PBM E-score” value was found to be 0.0744. As to AGCATGTA, the “PBM E-score” value is -0.116. For GCTGAGAA the value was 0.00573.

As to CTTATGAC, the “PBM E-score” value is 0.0571. Next, GAATTCGA: -0.135; ATAGAGAG: -0.248. Next, TGTTGCAA: 0.172.

In the case of TATGAGCA, the “PBM E-score” value was found to be 0.11. For GGTATACC the value was 0.126; for CACCGAGC, 0.249; for GGGGACCA, 0.167. Next, AGTGTTCC: -0.0468. For the sequence CCATGCAC, the “PBM E-score” value was 0.0697. For ACTTTTCC the value was -0.00919. As to AAAGCGGC, the “PBM E-score” value was -0.212. Next, CTCTCTTA: -0.144; CGAAGTTA: -0.0266; ACTTTAAA: -0.0302.

For the sequence AGACGTGG, the “PBM E-score” value was -0.00569. For AGTGCTCA the value was 0.014; for ACCGAGGT, -0.0505; for CGAATAAC, 0.0152. As to GTGTTCAA, the “PBM E-score” value is -0.0451.

Consider GAGCCAGC, for which the “PBM E-score” value was 0.091. For CCTCACCG the value was 0.113; for CCCCCGAC, -0.0669. For AATCCTGT the value was 0.0793; for CAAGCTCA, -0.0515; for AGCGGTGG, -0.151.

Consider CGATTATA, for which the “PBM E-score” value is -0.0548.

In the case of AAGTCCTC, the “PBM E-score” value is -0.079. Next, ATGACGCG: 0.162.

Regarding CTCACTTA, the “PBM E-score” value amounted to 0.145. For CGCCCTAG the value was 0.0143; for CACGTGGA, 0.0456.

In the case of AACTGTCC, the “PBM E-score” value was -0.0925. Next, CTCGTAAA: -0.22; CATGTTTC: 0.155.

Take TGATTGAA: the “PBM E-score” value worked out at 0.18. With AGGCCCGA, the “PBM E-score” value is -0.0896. Next, ATTTATCA: 0.165; ACGAAAGA: -0.0866. Regarding CCCGGCAG, the “PBM E-score” value is -0.0362. Next, CAAGGATC: -0.0321. For ACTAGATC, the “PBM E-score” value was -0.0743. For ATGCGTGG, the “PBM E-score” value was -0.0769. For ACCTAACG the value was -0.0921; for ATCCGTGA, 0.0715; for ATCTAAGG, -0.141. In the case of GACCTCGA, the “PBM E-score” value was found to be 0.0768. Next, TTGAACAA: -0.106; AAAGTGTA: -0.0832; TCGCTTAA: -0.0577. For AGACCGTA the value was -0.194; for CCCGCGAC, 0.193; for AGTTAGCG, 0.0107. For GAGCGGCA the value was -0.0343; for CAAGCCCC, -0.067; for CAGTGACA, 0.00649.

With ATATAAAT, the “PBM E-score” value came out at 0.106. For AACCCAAA the value was -0.158; for ACTAGCTG, 0.217. For GGACTCAA the value was 0.143. Consider ATAACGAG, for which the “PBM E-score” value was -0.147. Regarding GGAACGCA, the “PBM E-score” value was -0.095.

Regarding CACTTAGA, the “PBM E-score” value is -0.117.

Regarding GTAACAGA, the “PBM E-score” value turned out to be 0.182.

With CGTTACAA, the “PBM E-score” value is -0.0675.

GTGCTGAA: the “PBM E-score” value worked out at 0.0433. For GTCCCGAC the value was 0.143; for ACCGACGA, 0.127; for CTATCCTC, -0.121. For ATATCGGC the value was -0.047; for TACCAGTA, 0.0965; for GGAAGTAC, -0.0604.

For the sequence ACCGCGGT, the “PBM E-score” value is 0.0486.

For the sequence CCCTTCCG, the “PBM E-score” value is -0.175. For ATATATCC the value was 0.273; for AGGTAGAT, -0.0719. Next, CATTAGGA: -0.0276; GGGTGGAA: -0.104.
